PubChem BioAssay AID624296 (National Center for Advancing Translational Sciences (NCATS), 2012)
Out of some 350,000 compounds screened, about 9,900 (2.8%) were called active. The inconclusive results got no clear call from the source; some entries with a clear call stand among them for comparison. The call rests on the fitted dose curve; in most records, active means well fitted activation curve with a large enough effect; inconclusive means small, poorly fitted or top-dose-only effect; inactive means no such curve, though single readings can be large or run the other way. No potency is given beside an inconclusive call; the fits are too rough.

Assay: A quantitative high throughput screen for small molecules that induce DNA re-replication in MCF 10a normal breast cells. Further: nearly all actives have a fitted effect of over 50% in size. On activity, positive = re-replication: % of control where 0% means no effect.
Details: MCF 10A DNA re-replication, Hoechst nuclear intensity, 48 h; activity, positive = re-replication: at 46.1 µM (top of the series)
Potency means the concentration at half of the fitted maximal effect; tags describe the fitted curve by direction and shape.

With `CCCCn1c(N)c(N(CCOC)C(=O)CCCc2cccs2)c(=O)[nH]c1=O` as the compound, how does the “activity, positive = re-replication” value read?
Its value is inactive: -1.52%.

For `COc1ccc(Nc2nc(-c3ccncc3)nc3ccccc23)cc1`, which Potency is on record?
The Potency was inconclusive [activator, single point].

For `Cc1ccccc1NC(=S)NCC(c1cccnc1)N(C)C` (centres undefined), which “activity, positive = re-replication” value is on record?
The value was inactive: -7.46%.

Which Potency does the source give for `Clc1ccc(-c2nc(NCCN3CCOCC3)c3ccccc3n2)cc1` here?
Its Potency is inconclusive [activator, single point].

With `O=C(CCNS(=O)(=O)c1ccc(OC(F)(F)F)cc1)N1CCN(C/C=C/c2ccccc2)CC1` as the compound, how does the Potency read?
Its Potency is inconclusive [activator, single point].

With `O=C1c2c(Br)c(Br)c(Br)c(Br)c2C(=O)N1c1ccccn1` as the compound, how does the Potency read?
The Potency was active: 0.651 µM.

With `Cc1ccc(NC(=O)c2ccc(S(=O)(=O)NCC3CCCO3)cc2)cc1` (centres undefined) as the compound, how does the Potency read?
The Potency was inconclusive [activator, single point].

Which “activity, positive = re-replication” value does the source give for `Cn1c(CN2CCOCC2)nc2cc(NC(=O)COc3ccccc3)ccc21` here?
Its value is inactive: -1.73%.

Which Potency does the source give for `C=CCn1c(SCC(=O)N2CCOCC2)nnc1C(C)NC(=O)c1ccccc1` (centres undefined) here?
The Potency was inconclusive [activator, full curve, poor fit].

Which Potency does the source give for `Nc1ncnc2c1ncn2[C@@H]1O[C@H](CNS(=O)(=O)c2cc(S(=O)(=O)c3ccccc3)cs2)[C@@H](O)[C@H]1O` here?
Its Potency is inconclusive [activator, single point].

Which Potency does the source give for `COc1cccc(CN(C(=O)COc2ccccc2[N+](=O)[O-])C2CCS(=O)(=O)C2)c1` (centres undefined) here?
Its Potency is inconclusive [activator, single point].

Which Potency does the source give for `CN=c1scc(C)n1/N=C/c1ccc(O)c(O)c1O` here?
Its Potency is inconclusive [activator, single point].

Which Potency does the source give for `COc1ccc(CN2C(=NC(=O)c3ccccc3)SC3CS(=O)(=O)CC32)cc1` (centres undefined) here?
The Potency was inconclusive [activator, partial curve, poor fit].

With `COc1cc(O)c(NC(C)=O)c2nonc12` as the compound, how does the “activity, positive = re-replication” value read?
Its value is inactive: -2.66%.

For `CCCN1C2CCCC1CC(NC(=O)c1cccc(OC)c1)C2` (centres undefined), which Potency is on record?
The Potency was inconclusive [activator, single point].

Which Potency does the source give for `C=CCC1(NCc2ccco2)CCN(CC)CC1` here?
The Potency was inconclusive [activator, single point].

Which “activity, positive = re-replication” value does the source give for `CC1CCN(C(=O)c2ccc(N3C(=O)C4CCC(C)CC4C3=O)cc2)CC1` (centres undefined) here?
Its value is inactive: -1.97%.

For `CCN(C(C)=O)N(CC)c1nc(Cl)nc(NC(C)C)n1`, which Potency is on record?
Its Potency is inconclusive [activator, partial curve, poor fit].

Which “activity, positive = re-replication” value does the source give for `CC(=O)Nc1ccc(S(=O)(=O)Nc2ccc(N3CCCCC3)cc2)cc1` here?
The value was inactive: -20.7%.
